Part of at least one peptide drawing is inferred or uncertain, most often the ends. Square brackets hold non-standard residues; d marks the D form. Ends that are not written are not given here. Peptide text beside a SMILES is read from it. pY = N[C@@H](Cc1ccc(OP(=O)(O)O)cc1)C(=O)O
Assays:
[1] = tested on: SupM2 cells; assay: Proliferation of SupM2 cells (3H-TdR pulse); format: cell-based
[2] = tested on: HER14 cells; assay: Proliferation of HER14 cells (3H-TdR uptake) after EGF stimulation; format: cell-based; settings: for cell proliferation compared to EGF alone: peptide 2 hrs, 100 ng/ml EGF
[3] = molecular target: T1, Shc PTB domain (GST-ShcB) binding to activated EGF-R (Homo sapiens, UniProt P29353); assay: In vitro binding assay: competitive inhibition of EGF receptor binding to GST-ShcB in HER14 lysates; settings: peptides dissolved in DMSO; 100 μM; FIG. 9
T1 construct: made in house
T1 sequence (P29353 156-339 limits assumed): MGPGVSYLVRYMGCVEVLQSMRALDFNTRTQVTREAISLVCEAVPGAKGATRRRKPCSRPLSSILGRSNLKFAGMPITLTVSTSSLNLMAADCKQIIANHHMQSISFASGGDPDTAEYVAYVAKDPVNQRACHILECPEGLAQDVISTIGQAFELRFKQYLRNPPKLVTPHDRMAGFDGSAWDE
Method: HER14 cells (3T3 cells expressing EGF-R) were starved in 0.5% CS media for 24 hours and stimulated with 100 ng/ml EGF for 5 min. Cells were lysed and mixed with GST, GST-ShcB or GST-R175M beads. Proteins which bound to beads were resolved on SDS-PAGE and detected by anti-phospho-Tyr antibody (4G10) or by anti-EGF-R.
The peptides listed in Table 2 were added to cell lysates at 5 μM, incubated for 30 min., and treated with GST-ShcB beads. Proteins bound to GST-ShcB were detected by anti-phospho-Tyr antibody. […] The experiment was repeated with the peptides dissolved in DMSO (FIG. 9).

[4] = molecular target: T2, Shc PTB domain binding to activated NGF receptor (Homo sapiens, UniProt P29353); assay: PTB binding assay: competition with activated NGF receptor in cell lysates for GST-Shc PTB, anti-P.Tyr immunoblot; settings: for ability to compete with NGF receptor for binding to GST-Shc PTB domain: lysates of NGF-stimulated cells, competing phosphopeptide 2 or 5 μM, FIG. 1A; for ability to compete for / bind to the Shc PTB domain: 2 μM competing phosphopeptide, lysates of NGF-stimulated cells (FIG. 5A), also SPR (FIG. 5B)
T2 construct: made in house
T2 sequence (P29353 156-339 limits assumed): T1 sequence (P29353 156-339 limits assumed)

## RQIKIWFQNRRMKWKKHIIENPQYFSD [P-1, RQIKIWFQNRRMKWKK-HIIENPQYFSD]
[1]; 70 nM
  cell proliferation: completely inhibited
[1]; serial dilutions, 60 pM
  cell growth: suppressed the cell growth completely
[1]; serum-free 24 hr, peptide 2 hrs, 20% FBS overnight, FIG. 14
  cell growth: inhibited cell growth to background level
[2]; cells starved 24 hours, FIG. 11a
  cell proliferation compared to EGF alone: slightly inhibited the proliferation of cells
[2]; cells starved 48 hrs, FIG. 11b
  cell proliferation compared to EGF alone: markedly prevented cell proliferation
[2]; repeat experiment, cells serum starved 24 hrs, FIG. 12
  cell growth compared to EGF treated cells: did not show any decrease of cell growth rate
[3]
  inhibition of association of Shc and EGF-R: did not inhibit the association of Shc and EGF-R

## CC[C@H](C)[C@H](NC(=O)[C@@H](NC(=O)[C@@H](N)Cc1c[nH]cn1)[C@@H](C)CC)C(=O)N[C@@H](CCC(=O)O)C(=O)N[C@@H](CC(N)=O)C(=O)N[C@@H](C)C(=O)N[C@@H](CCC(N)=O)C(=O)N[C@@H](Cc1ccc(OP(=O)(O)O)cc1)C(=O)N[C@@H](Cc1ccccc1)C(=O)N[C@@H](CO)C(=O)N[C@@H](CC(=O)O)C(=O)O [H-I-I-E-N-A-Q-P.Y-F-S-D, His-Ile-Ile-Glu-Asn-Ala-Gln-P.Tyr-Phe-Ser-Asp] (H-HIIENAQ[pY]FSD-OH)
[4]
  ability to compete with NGF receptor for binding to GST-Shc PTB domain: reduced the affinity

## C[C@H](NC(=O)[C@@H](N)Cc1c[nH]cn1)C(=O)N[C@@H](CO)C(=O)N[C@@H](CCC(=O)O)C(=O)N[C@@H](CC(N)=O)C(=O)N1CCC[C@H]1C(=O)N[C@@H](CCC(N)=O)C(=O)N[C@@H](Cc1ccc(OP(=O)(O)O)cc1)C(=O)N[C@@H](Cc1ccccc1)C(=O)N[C@@H](CO)C(=O)N[C@@H](CC(=O)O)C(=O)O [H-A-S-E-N-P-Q-P.Y-F-S-D, H-A-S-E-N-P-Q-p.Y-F-S-D] (H-HASENPQ[pY]FSD-OH)
[4]
  ability to compete for / bind to the Shc PTB domain: abolished binding

## CC[C@H](C)[C@H](NC(=O)[C@@H](NC(=O)[C@@H](N)Cc1c[nH]cn1)[C@@H](C)CC)C(=O)N[C@@H](CCC(=O)O)C(=O)N[C@@H](C)C(=O)N1CCC[C@H]1C(=O)N[C@@H](CCC(N)=O)C(=O)N[C@@H](Cc1ccc(OP(=O)(O)O)cc1)C(=O)N[C@@H](Cc1ccccc1)C(=O)N[C@@H](CO)C(=O)N[C@@H](CC(=O)O)C(=O)O [H-I-I-E-A-P-Q-P.Y-F-S-D, His-Ile-Ile-Glu-Ala-Pro-Gln-P.Tyr-Phe-Ser-Asp] (H-HIIEAPQ[pY]FSD-OH)
[4]
  ability to compete with NGF receptor for binding to GST-Shc PTB domain: completely abolished binding

## CC(C)C[C@H](NC(=O)[C@H](Cc1ccc(OP(=O)(O)O)cc1)NC(=O)[C@H](CCC(=O)O)NC(=O)[C@@H]1CCCN1C(=O)[C@H](CC(N)=O)NC(=O)[C@H](CO)NC(=O)[C@H](CO)NC(=O)[C@H](C)NC(=O)[C@@H](N)Cc1ccc(O)cc1)C(=O)N[C@@H](CO)C(=O)N[C@@H](C)C(=O)O [Y-A-S-S-N-P-E-P.Y-L-S-A, Y-A-S-S-N-P-E-p.Y-L-S-A] (H-YASSNPE[pY]LSA-OH)
[4]; listed as Wt insulin receptor peptide
  ability to compete for / bind to the Shc PTB domain: no measurable affinity for the PTB domain
[4]; listed as insulin receptor peptide
  ability to compete for / bind to the Shc PTB domain: unable to compete

## CC[C@H](C)[C@H](NC(=O)[C@H](C)NC(=O)[C@@H](N)Cc1ccc(O)cc1)C(=O)N[C@@H](CO)C(=O)N[C@@H](CC(N)=O)C(=O)N1CCC[C@H]1C(=O)N[C@@H](CCC(=O)O)C(=O)N[C@@H](Cc1ccc(OP(=O)(O)O)cc1)C(=O)N[C@@H](CC(C)C)C(=O)N[C@@H](CO)C(=O)N[C@@H](C)C(=O)O [Y-A-I-S-N-P-E-P.Y-L-S-A, Tyr-Ala-Ile-Ser-Asn-Pro-Glu-P.Tyr-Leu-Ser-Ala] (H-YAISNPE[pY]LSA-OH)
[4]
  ability to compete for / bind to the Shc PTB domain: competed efficiently

— patent US6028053A, “Peptide inhibitors of a phosphotyrosine-binding domain containing protein” (Mount Sinai Hospital Corporation, priority 1998, dated 2000)
